Drawing on article PMC10424213, this text covers binding for 13 substances.

Experiment [1] addresses pIII-C A382C (pBAD-pIII-C) (fd phage) (UniProt P03661). In words: cross-linking.
In experiment [2] the target is T1, TolR fused to the T25 domain of the adenylate cyclase (Escherichia coli) (UniProt P0ABV6).
T1 sequence: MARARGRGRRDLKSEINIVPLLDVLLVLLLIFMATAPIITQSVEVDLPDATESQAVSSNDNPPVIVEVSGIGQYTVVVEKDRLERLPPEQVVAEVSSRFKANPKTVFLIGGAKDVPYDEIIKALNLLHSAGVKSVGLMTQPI
Description: two-hybrid.

The target in experiment [3] is T2, TolQ fused to the T25 domain of the adenylate cyclase (Escherichia coli) (UniProt P0ABU9).
T2 sequence: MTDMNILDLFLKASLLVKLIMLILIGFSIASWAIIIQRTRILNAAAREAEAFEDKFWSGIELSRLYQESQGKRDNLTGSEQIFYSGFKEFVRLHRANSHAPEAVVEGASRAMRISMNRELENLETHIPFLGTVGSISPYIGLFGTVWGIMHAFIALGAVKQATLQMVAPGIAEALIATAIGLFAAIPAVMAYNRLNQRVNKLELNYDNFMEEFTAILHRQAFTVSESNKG
In words: two-hybrid.

The target of experiment [4] is TolR2-3 (residues 45-143 of TolR) fused to T18 or T25 (Escherichia coli) (UniProt P0ABV6). In words: two-hybrid.
The target in experiment [5] is pIII-N2 (residues 82-222 of pIII) fused to T18 or T25 (fd phage) (UniProt P03661). In words: two-hybrid.
Experiment [6] deals with pIII, full length, fused to the T18 or T25 domain of the Bordetella pertussis adenylate cyclase (fd phage) (UniProt P03661). Description: two-hybrid.
The target of experiment [7] is T3, pVI, full length, fused to the T18 or T25 domain of the adenylate cyclase (fd phage) (UniProt P69531).
T3 sequence: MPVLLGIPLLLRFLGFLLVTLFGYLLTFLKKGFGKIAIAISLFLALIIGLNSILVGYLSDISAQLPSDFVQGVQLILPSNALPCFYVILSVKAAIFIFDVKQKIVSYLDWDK
In words: two-hybrid.

The target of experiment [8] is T4, ExbB, bacterial two-hybrid fusion (Escherichia coli) (UniProt P0ABU7).
T4 sequence: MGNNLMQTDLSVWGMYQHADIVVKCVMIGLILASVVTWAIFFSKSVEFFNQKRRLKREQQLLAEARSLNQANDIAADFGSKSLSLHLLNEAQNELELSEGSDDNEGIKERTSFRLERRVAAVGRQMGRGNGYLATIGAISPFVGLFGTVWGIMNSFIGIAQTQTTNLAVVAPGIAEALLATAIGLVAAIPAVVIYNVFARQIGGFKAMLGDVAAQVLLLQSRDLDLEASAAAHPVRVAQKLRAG
Description: two-hybrid.

The target in experiment [9] is pIII-N1 (residues 1-71 of the mature pIII protein) fused to T18 or T25 (fd phage) (UniProt P03661). In words: two-hybrid.
The target of experiment [10] is pIII-C F381C (pBAD-pIII-C) (fd phage) (UniProt P03661). Description: cross-linking.
For experiment [11], the target named is T5, TolQ with a C-terminal hemagglutinin (HA) tag (Escherichia coli) (UniProt P0ABU9).
T5 sequence: T2 sequence
Description: co-IP.

For experiment [12], the target named is T5, TolQ with a C-terminal hemagglutinin (HA) tag (Escherichia coli). In words: protease accessibility assay.
Experiment [13] has as its target pIII-C F383C (pBAD-pIII-C) (fd phage) (UniProt P03661). In words: cross-linking.

These are yes or no findings as the source states them, for the method shown. For some assays here: In cells and extracts the contact can be indirect. Some results given as binding are weak or reduced against the parent protein; the word gives no strength. For some assays here: Where a sequence is shown, tags or fusion partners need not be part of it.

On to “pIII-C A382C (pBAD-pIII-C) (from UniProt P03661 274-424) (domain or fragment)”, for which, in experiment [1], the binding entry is on record as “binds”.
In the case of “pIII-C-T18 A382L (from UniProt P03661 274-424) (domain or fragment)”, the binding result in experiment [2] is given as “binds”; in [3] it was “no binding”.
In the case of “pIII-N2 (residues 82-222 of pIII) fused to T18 or T25 (from UniProt P03661 100-240) (domain or fragment)”, the binding result in [4] is “no binding”; in experiment [5], “binds”.
On to “pIII-275 (residues 275-406 of pIII) fused to T18 (from UniProt P03661 293-424) (domain or fragment)”, for which the binding result in experiment [2] and in [3] was “binds” throughout.
In the case of “pIII, full length, fused to the T18 or T25 domain of the Bordetella pertussis adenylate cyclase (from UniProt P03661 1-424)”, the binding entry in experiment [6], in experiment [7], in experiment [2], in [8] and in experiment [3] was “binds” each time.
For “pIII-N1 (residues 1-71 of the mature pIII protein) fused to T18 or T25 (from UniProt P03661 19-89) (domain or fragment)”, the binding entry is listed as “no binding” in experiment [4], “binds” in [5] and “no binding” in [9].
Regarding “pIII-C-T18 F381G-F383G (from UniProt P03661 274-424) (domain or fragment)”, the binding entry in [2] is “binds”; in experiment [3], “no binding”.
Turning to “pIII-C F381C (pBAD-pIII-C) (from UniProt P03661 274-424) (domain or fragment)”, in experiment [10], the binding entry was “binds”.
Take “pIII-286 (residues 286-406 of pIII) fused to T18 (from UniProt P03661 304-424) (domain or fragment)”: the binding result in experiment [3] is on record as “no binding”.
Consider “pIII-C deleted of its TMH (residues 256-378 of pIII) fused to T18 or T25 (from UniProt P03661 274-396) (domain or fragment)”, for which the binding entry in experiment [4] is recorded as “no binding”.
Regarding “native pIII protein, full length, produced in E. coli W3110 (from UniProt P03661 19-424)”, the binding entry in [11] and in experiment [12] was “binds” in each case.
Regarding “pIII-C (residues 256-406 of pIII) fused to the T18 or T25 domain of the adenylate cyclase (from UniProt P03661 274-424) (domain or fragment)”, the binding entry in experiment [7], in [2] and in experiment [3] was “binds” each time.
Turning to “pIII-C F383C (pBAD-pIII-C) (from UniProt P03661 274-424) (domain or fragment)”, the binding result in experiment [13] is recorded as “binds”.
